For 2 molecules, Kd results are on record in patent US20240228656A1 (HARPOON THERAPEUTICS, published 2024).

What all share (experiment): binding assay with kinetics, affinity summary (instrument not stated)
Assay [1] concerns the target T1, EpCAM H13 Mask27 L040 (EpCAM targeting ProTriTAC with H13).
T1 construct: trispecific prodrug: masked anti-albumin sdAb-cleavable linker L040-anti-CD3 scFv-anti-EpCAM sdAb H13-His6; also called H13 ProTriTAC (L040)

The target in assay [2] is T2, EpCAM H90 Mask27 L040 (EpCAM targeting ProTriTAC with H90).
T2 construct: trispecific prodrug: masked anti-albumin sdAb-L040-anti-CD3 scFv-anti-EpCAM sdAb H90-His6
T2 sequence (chain, as listed by the source): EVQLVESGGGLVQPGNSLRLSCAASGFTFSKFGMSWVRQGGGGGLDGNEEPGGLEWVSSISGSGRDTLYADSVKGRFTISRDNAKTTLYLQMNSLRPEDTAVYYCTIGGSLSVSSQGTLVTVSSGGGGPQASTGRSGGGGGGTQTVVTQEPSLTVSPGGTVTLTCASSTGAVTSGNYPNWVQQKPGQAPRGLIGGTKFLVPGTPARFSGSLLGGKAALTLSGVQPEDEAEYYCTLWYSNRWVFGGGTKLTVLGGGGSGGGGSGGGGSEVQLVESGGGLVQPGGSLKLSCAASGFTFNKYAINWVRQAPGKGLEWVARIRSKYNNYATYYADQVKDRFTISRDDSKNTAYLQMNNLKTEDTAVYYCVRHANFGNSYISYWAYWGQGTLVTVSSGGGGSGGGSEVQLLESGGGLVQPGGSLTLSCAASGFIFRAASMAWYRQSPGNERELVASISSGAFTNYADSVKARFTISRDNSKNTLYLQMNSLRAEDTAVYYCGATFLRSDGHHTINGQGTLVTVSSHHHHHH

Assay [3] deals with T3, EpCAM H90.2 Mask27 L040 (EpCAM targeting ProTriTAC with H90.2).
T3 construct: trispecific prodrug; also called H90.2 ProTriTAC (L040)
T3 sequence (chain, as listed by the source): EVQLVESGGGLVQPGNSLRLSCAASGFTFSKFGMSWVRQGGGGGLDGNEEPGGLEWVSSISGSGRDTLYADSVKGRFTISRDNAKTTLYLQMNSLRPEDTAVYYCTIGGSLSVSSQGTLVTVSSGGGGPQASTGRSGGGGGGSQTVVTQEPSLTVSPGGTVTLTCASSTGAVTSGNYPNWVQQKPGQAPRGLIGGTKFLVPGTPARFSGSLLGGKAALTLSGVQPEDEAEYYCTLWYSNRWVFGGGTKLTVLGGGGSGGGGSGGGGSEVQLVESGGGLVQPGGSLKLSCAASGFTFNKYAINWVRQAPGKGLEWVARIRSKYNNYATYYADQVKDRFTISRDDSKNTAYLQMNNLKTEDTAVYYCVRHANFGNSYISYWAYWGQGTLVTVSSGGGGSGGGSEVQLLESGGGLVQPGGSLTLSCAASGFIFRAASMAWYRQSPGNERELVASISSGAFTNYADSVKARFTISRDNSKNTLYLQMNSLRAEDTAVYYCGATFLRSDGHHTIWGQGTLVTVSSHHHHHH

T1 sequence (chain, as listed by the source): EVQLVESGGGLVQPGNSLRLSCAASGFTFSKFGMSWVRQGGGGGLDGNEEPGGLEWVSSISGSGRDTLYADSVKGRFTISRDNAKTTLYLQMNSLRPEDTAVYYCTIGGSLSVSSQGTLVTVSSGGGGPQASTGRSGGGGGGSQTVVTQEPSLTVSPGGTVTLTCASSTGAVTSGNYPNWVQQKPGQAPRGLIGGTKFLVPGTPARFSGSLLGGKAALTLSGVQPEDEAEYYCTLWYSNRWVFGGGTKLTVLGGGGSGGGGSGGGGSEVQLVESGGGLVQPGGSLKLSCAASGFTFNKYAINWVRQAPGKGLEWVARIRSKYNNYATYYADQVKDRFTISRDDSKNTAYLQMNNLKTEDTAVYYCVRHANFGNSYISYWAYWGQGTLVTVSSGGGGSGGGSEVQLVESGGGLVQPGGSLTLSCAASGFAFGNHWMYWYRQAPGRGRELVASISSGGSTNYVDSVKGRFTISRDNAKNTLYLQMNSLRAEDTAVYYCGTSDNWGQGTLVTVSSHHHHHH

B1: cyEpCAM:Fc (Fc fusion)
chain: QKECVCENYKLAVNCFLNDNGQCQCTSIGAQNTVLCSKLAAKCLVMKAEMNGSKLGRRAKPEGALQNNDGLYDPDCDESGLFKAKQCNGTSTCWCVNTAGVRRTDKDTEITCSERVRTYWIIIELKHKAREKPYDVQSLRTALEEAIKTRYQLDPKFITNILYEDNVITIDLVQNSSQKTQNDVDIADVAYYFEKDVKGESLFHSKKMDLRVNGEQLDLDPGQTLIYYVDEKAPEFSMQGLKDYKDDDDKGGGGS[human IgG1 Fc not written out]
modifications: biotinylated
notes: also called 1.9-Bn cyEpCAM aa24-265 FLAG huIgG1 Fc; biotin-cyEpCAM-Fc
Usually Kd stands for the constant that tells how readily two partners part at equilibrium. Consider B1, for which the Kd in assay [1] was found to be 137 nM; in assay [2] it was 0.42 nM; in assay [3], 0.21 nM.

B2: huEpCAM:Fc (Fc fusion)
chain: QEECVCENYKLAVNCFVNNNRQCQCTSVGAQNTVICSKLAAKCLVMKAEMNGSKLGRRAKPEGALQNNDGLYDPDCDESGLFKAKQCNGTSMCWCVNTAGVRRTDKDTEITCSERVRTYWIIIELKHKAREKPYDSKSLRTALQKEITTRYQLDPKFITSILYENNVITIDLVQNSSQKTQNDVDIADVAYYFEKDVKGESLFHSKKMDLTVNGEQLDLDPGQTLIYYVDEKAPEFSMQGLKDYKDDDDKGGGGS[human IgG1 Fc not written out]
modifications: biotinylated
notes: also called 1.7 Bn huEpCAM aa22-265 FLAG huIgG1 Fc; biotin-huEpCAM-Fc
As to B2, the figures for the Kd in assay [2] and in assay [3] were 0.23 nM and 0.1 nM, respectively.
